The values below come from US11420968B2 (priority 2018, dated 2022).

Molecules are shown by their SMILES. Like-named read-outs stand apart in the source and are kept apart here.

Broadly, the IC50 is the concentration at which inhibition is half-maximal.

One assay concerns RS4;11 cells. Nature of the assay: cells. To be noted: Homo sapiens.
The next assay deals with Molt-4 cells. Description: cells. As to conditions: Homo sapiens.
The mark [1] stands for this setting: RS4-11, 48 h, read-out: Cellular activity (IC50, nM) RS4, 11.
Setting [2] is: MOLT-4, read-out: Cellular activity (IC50, nM) Molt-4.
[3] abbreviates: RS4-11, 48 h, read-out: Cellular activity (IC50, nM) RS4;11.

On to `O=C(NS(=O)(=O)c1ccc(NCC2CCOCC2)c([N+](=O)[O-])c1)c1ccc(-c2ccc(N3CC(F)CC3c3ccccc3C3CC3)cc2)cc1Oc1cnc2[nH]ccc2c1` (stereo not shown) [Example A73, 3-((1H-pyrrolo[2,3-b]pyridin-5-yl)oxy)-4′-(2-(2-cyclopropylphenyl)-4-fluoropyrrolidin-1-yl)-N-((3-nitro-4-(((tetrahydro-2H-pyran-4-yl)methyl)amino)phenyl)sulfonyl)-[1,1′-biphenyl]-4-carboxamide], for which the IC50 in the assay with RS4;11 cells (setting [1]) was found to be 20 nM; in the assay on Molt-4 cells (setting [2]) it was 2110 nM.
The corresponding values for `O=C(NS(=O)(=O)c1ccc(NCC2CCOCC2)c([N+](=O)[O-])c1)c1ccc(C2=CCN(C(=O)C3CCCN3c3ccccc3)CC2)cc1Oc1cnc2[nH]ccc2c1` (stereo not shown) [Example B8, 2-((1H-pyrrolo[2,3-b]pyridin-5-yl)oxy)-N-((3-nitro-4-(((tetrahydro-2H-pyran-4-yl)methyl)amino)phenyl)sulfonyl)-4-(1-(phenylprolyl)-1,2,3,6-tetrahydropyridin-4-yl)benzamide] are greater than 10000 nM and greater than 10000 nM.
The corresponding values for `O=C(NS(=O)(=O)c1ccc(NCC2CCOCC2)c([N+](=O)[O-])c1)c1ccc(C2=CCC(N3CCCC3c3ccccn3)CC2)cc1Oc1cnc2[nH]ccc2c1` (stereo not shown) [Example C7, 3-((1H-pyrrolo[2,3-b]pyridin-5-yl)oxy)-N-((3-nitro-4-(((tetrahydro-2H-pyran-4-yl)methyl)amino)phenyl)sulfonyl)-4′-(2-(pyridin-2-yl)pyrrolidin-1-yl)-2′,3′,4′,5′-tetrahydro-[1,1′-biphenyl]-4-carboxamide] are 2180 nM and greater than 10000 nM.
Consider `O=C(NS(=O)(=O)c1ccc(NCC2CCOCC2)c([N+](=O)[O-])c1)c1ccc(C2=CCC(N3CCCC3c3cc(C4CC4)ccc3F)CC2)cc1Oc1cnc2[nH]ccc2c1` (stereo not shown) [Example C168, 3-((1H-pyrrolo[2,3-b]pyridin-5-yl)oxy)-4′-(2-(5-cyclopropyl-2-fluorophenyl)pyrrolidin-1-yl)-N-((3-nitro-4-(((tetrahydro-2H-pyran-4-yl)methyl)amino)phenyl)sulfonyl)-2′,3′,4′,5′-tetrahydro-[1,1′-biphenyl]-4-carboxamide], for which the IC50 was 363 nM with RS4;11 cells (setting [1]) and greater than 10000 nM in the assay on Molt-4 cells (setting [2]).
With `CCCCC1C2CCCC2CN1C1CC=C(c2ccc(C(=O)NS(=O)(=O)c3ccc(NCC4CCOCC4)c([N+](=O)[O-])c3)c(Oc3cnc4[nH]ccc4c3)c2)CC1` (stereo not shown) [Example C193, 3-((1H-pyrrolo[2,3-b]pyridin-5-yl)oxy)-4′-(1-butylhexahydrocyclopenta[c]pyrrol-2(1H)-yl)-N-((3-nitro-4-(((tetrahydro-2H-pyran-4-yl)methyl)amino)phenyl)sulfonyl)-2′,3′,4′,5′-tetrahydro-[1,1′-biphenyl]-4-carboxamide], the IC50 is 159 nM in the assay with RS4;11 cells (setting [1]) and 3950 nM with Molt-4 cells (setting [2]).
As for `Nc1ncc(Oc2cc(N3CCC4(CC3)CC(N3CCC[C@H]3c3ccccc3C3CC3)C4)ccc2C(=O)NS(=O)(=O)c2ccc(NCC3CCOCC3)c([N+](=O)[O-])c2)cc1Cl` [Example F126, (S)-2-((6-amino-5-chloropyridin-3-yl)oxy)-4-(2-(2-(2-cyclopropylphenyl)pyrrolidin-1-yl)-7-azaspiro[3.5]nonan-7-yl)-N-((3-nitro-4-(((tetrahydro-2H-pyran-4-yl)methyl)amino)phenyl)sulfonyl)benzamide], the 50% inhibitory concentration (IC50) was 7.5 nM in the assay on RS4;11 cells (setting [3]); 7.5 nM with RS4;11 cells (RS4-11, read-out: Celluclar activity (IC50, nM) RS 4, 11); greater than 10000 nM with Molt-4 cells (MOLT-4, read-out: Celluclar activity (IC50, nM) Molt-4); greater than 10000 nM in the assay with Molt-4 cells (setting [2]).
On to `CCc1ccccc1[C@@H]1CCCN1C1CC2(C1)CN(c1ccc(C(=O)NS(=O)(=O)c3ccc(NC[C@H]4COCCO4)c([N+](=O)[O-])c3)c(Oc3cnc4[nH]ccc4c3)c1)C2` [Example F112, N-((4-((((S)-1,4-dioxan-2-yl)methyl)amino)-3-nitrophenyl)sulfonyl)-2-((1H-pyrrolo[2,3-b]pyridin-5-yl)oxy)-4-(6-((S)-2-(2-ethylphenyl)pyrrolidin-1-yl)-2-azaspiro[3.3]heptan-2-yl) benzamide], for which the IC50 amounted to 0.7 nM in the assay on RS4;11 cells (setting [3]) and 871 nM in the assay on Molt-4 cells (setting [2]).
Take `O=C(NS(=O)(=O)c1ccc(N[C@@H]2CCN(C(CF)CF)C2)c([N+](=O)[O-])c1)c1ccc(C2=CCC(N3CCCC3c3ccccc3C3CC3)CC2)cc1Oc1cnc2[nH]ccc2c1` (stereo partly drawn) [Example G64, 3-((1H-pyrrolo[2,3-b]pyridin-5-yl)oxy)-4′-(2-(2-cyclopropylphenyl)pyrrolidin-1-yl)-N-((4-(((R)-1-(1,3-difluoropropan-2-yl)pyrrolidin-3-yl)amino)-3-nitrophenyl)sulfonyl)-2′,3′,4′,5′-tetrahydro-[1,1′-biphenyl]-4-carboxamide]: the values for the half-inhibitory concentration (IC50) in the assay on RS4;11 cells (setting [1]) and with Molt-4 cells (setting [2]) were 70 nM and 3740 nM, respectively.
With `O=C(NS(=O)(=O)c1ccc(NCC2CCOCC2)c([N+](=O)[O-])c1)c1ccc(-c2ccc(N3CCC[C@@H]3c3ccccc3C3=CCN(C4CC4)CC3)cc2)cc1Oc1cnc2[nH]ccc2c1` (stereo in doubt) [Example A107, 3-((1H-pyrrolo[2,3-b]pyridin-5-yl)oxy)-4′-(2-(2-(1-cyclopropyl-1,2,3,6-tetrahydropyridin-4-yl)phenyl)pyrrolidin-1-yl)-N-((3-nitro-4-(((tetrahydro-2H-pyran-4-yl)methyl)amino)phenyl)sulfonyl)-[1,1′-biphenyl]-4-carboxamide], the 50% inhibitory concentration (IC50) in the assay on RS4;11 cells (setting [3]) was 18 nM; in the assay on Molt-4 cells (setting [2]), 3180 nM.
Take `O=C(NS(=O)(=O)c1ccc(NCC2CCOCC2)c([N+](=O)[O-])c1)c1ccc(C2=CCC(N3CCCC3c3ccccc3C3CCNCC3)CC2)cc1Oc1cnc2[nH]ccc2c1` (stereo not shown) [Example C66, 3-((1H-pyrrolo[2,3-b]pyridin-5-yl)oxy)-N-((3-nitro-4-(((tetrahydro-2H-pyran-4-yl)methyl)amino)phenyl)sulfonyl)-4′-(2-(2-(piperidin-4-yl)phenyl)pyrrolidin-1-yl)-2′,3′,4′,5′-tetrahydro-[1,1′-biphenyl]-4-carboxamide]: the half-maximal inhibitory concentration (IC50) with RS4;11 cells (setting [1]) is 3010 nM; in the assay with Molt-4 cells (setting [2]), greater than 10000 nM.
`CN1CCCC(N(C)c2ccccc2C2CCCN2c2ccc(-c3ccc(C(=O)NS(=O)(=O)c4ccc(NCC5CCOCC5)c([N+](=O)[O-])c4)c(Oc4cnc5[nH]ccc5c4)c3)cc2)C1` (stereo not shown) [Example A134, 3-((1H-pyrrolo[2,3-b]pyridin-5-yl)oxy)-4′-(2-(2-(methyl(1-methylpiperidin-3-yl)amino)phenyl)pyrrolidin-1-yl)-N-((3-nitro-4-(((tetrahydro-2H-pyran-4-yl)methyl)amino)phenyl)sulfonyl)-[1,1′-biphenyl]-4-carboxamide]: the results for the half-maximal inhibitory concentration (IC50) with RS4;11 cells (setting [3]) and in the assay with Molt-4 cells (setting [2]) were 2.1 nM and 1390 nM, respectively.
As for `CN1CCC(CNc2ccc(S(=O)(=O)NC(=O)c3ccc(-c4ccc(N5CCCC5c5ccccc5Cl)cc4)cc3Oc3cnc4[nH]ccc4c3)cc2[N+](=O)[O-])CC1` (stereo not shown) [Example G2, 3-((1H-pyrrolo[2,3-b]pyridin-5-yl)oxy)-4′-(2-(2-chlorophenyl)pyrrolidin-1-yl)-N-((4-(((1-methylpiperidin-4-yl)methyl)amino)-3-nitrophenyl)sulfonyl)-[1,1′-biphenyl]-4-carboxamide], the IC50 with RS4;11 cells (setting [1]) came out at 208 nM; in the assay with Molt-4 cells (setting [2]), 8170 nM.
Regarding `COc1ccc(C2CCCN2c2ccc(-c3ccc(C(=O)NS(=O)(=O)c4ccc(NCC5CCOCC5)c([N+](=O)[O-])c4)c(Oc4cnc5[nH]ccc5c4)c3)cc2)cc1` (stereo not shown) [Example A19, 3-((1H-pyrrolo[2,3-b]pyridin-5-yl)oxy)-4′-(2-(4-methoxyphenyl)pyrrolidin-1-yl)-N-((3-nitro-4-(((tetrahydro-2H-pyran-4-yl)methyl)amino)phenyl)sulfonyl)-[1,1′-biphenyl]-4-carboxamide], the IC50 was 1020 nM with RS4;11 cells (setting [1]) and greater than 10000 nM in the assay with Molt-4 cells (setting [2]).
Turning to `CC1(C)CCC(Cc2ccc(-c3ccc(C(=O)NS(=O)(=O)c4ccc(NCC5CCOCC5)c([N+](=O)[O-])c4)c(Oc4cnc5[nH]ccc5c4)c3)cc2)=C(c2ccc(Cl)cc2)C1` [Example B6, 3-((1H-pyrrolo[2,3-b]pyridin-5-yl)oxy)-4′-((4′-chloro-5,5-dimethyl-3,4,5,6-tetrahydro-[1,1′-biphenyl]-2-yl)methyl)-N-((3-nitro-4-(((tetrahydro-2H-pyran-4-yl)methyl)amino)phenyl)sulfonyl)-[1,1′-biphenyl]-4-carboxamide], the IC50 with RS4;11 cells (setting [1]) was found to be 91 nM; in the assay with RS4;11 cells (RS4-11, read-out: Cellular activity (IC50, nM)), 91 nM; in the assay with Molt-4 cells (setting [2]) it was 7260 nM.
On to `O=C(NS(=O)(=O)c1ccc(NCCN2CCOCC2)c([N+](=O)[O-])c1)c1ccc(-c2ccc(N3CCC[C@@H]3c3ccccc3C3CC3)cc2)cc1Oc1cnc2[nH]ccc2c1` [Example G130, (R)-3-((1H-pyrrolo[2,3-b]pyridin-5-yl)oxy)-4′-(2-(2-cyclopropylphenyl)pyrrolidin-1-yl)-N-((4-((2-morpholinoethyl)amino)-3-nitrophenyl)sulfonyl)-[1,1′-biphenyl]-4-carboxamide], for which the results for the half-inhibitory concentration (IC50) in the assay with RS4;11 cells (setting [3]) and in the assay on Molt-4 cells (setting [2]) were 82 nM and 2340 nM, respectively.
In the case of `O=C(NS(=O)(=O)c1ccc(OCC2CCC3(CC2)COC3)c([N+](=O)[O-])c1)c1ccc(-c2ccc(N3CCC[C@@H]3c3ccccc3C3CC3)cc2)cc1Oc1cnc2[nH]ccc2c1` [Example G99, (R)-3-((1H-pyrrolo[2,3-b]pyridin-5-yl)oxy)-N-((4-((2-oxaspiro[3.5]nonan-7-yl)methoxy)-3-nitrophenyl)sulfonyl)-4′-(2-(2-cyclopropylphenyl)pyrrolidin-1-yl)-[1,1′-biphenyl]-4-carboxamide], the results for the IC50 with RS4;11 cells (setting [3]) and in the assay with Molt-4 cells (setting [2]) were 36 nM and 6900 nM, respectively.
Take `CC(=O)N1CCC(CNc2ccc(S(=O)(=O)NC(=O)c3ccc(-c4ccc(N5CCC[C@@H]5c5ccccc5C5CC5)cc4)cc3Oc3cnc4[nH]ccc4c3)cc2[N+](=O)[O-])CC1` [Example G128, (R)-3-((1H-pyrrolo[2,3-b]pyridin-5-yl)oxy)-N-((4-(((1-acetylpiperidin-4-yl)methyl)amino)-3-nitrophenyl)sulfonyl)-4′-(2-(2-cyclopropylphenyl)pyrrolidin-1-yl)-[1,1′-biphenyl]-4-carboxamide]: the IC50 with RS4;11 cells (setting [3]) turned out to be 21 nM; in the assay with Molt-4 cells (setting [2]), 765 nM.
